Reference: patent US11207320B2, “Compositions and methods for cancer expressing PDE3A or SLFN12” (The Broad Institute, Inc., priority 2015, dated 2021)
The source gives many values for each of these; only a part stands here.

Tested on: 766 cancer cell lines
Test: Large-scale cell-line viability measurements (766 cancer cell lines, 72 h, AUC)
Type: cell-based, human
Experimental: Cell lines were treated for 72 hours with concentrations ranging from 66.4 μM-2 nM in 2-fold step dilutions.
To characterize cellular sensitivity to DNMDP further, 766 genomically characterized cancer cell lines were screened for DMNDP sensitivity at concentrations ranging from 66.4 μM to 2 nM in 2-fold dilution steps for 72 hours. From these cell lines, 22 cell lines were categorized as sensitive with a robust Z-score lower than −4, which represented multiple lineages including multiple melanoma cell lines, amongst others (Table 1).
The sensitivity of […] cancer cell lines (CCLs) was measured drawn from 23 different lineages to DNMDP. Each cell line was plated in its preferred media in white opaque 1536-plates at a density of 500 cells/well. After incubating overnight, DNMDP was added by acoustic transfer at 16 concentrations ranging from 66.4 μM-2 nM in 2-fold steps in duplicate (Labcyte Echo 555, Labcyte Inc., Sunnyvale, Calif.). After 72 hours treatment, cellular ATP levels were measured as a surrogate for viability (CELLTITERGLO®, Promega Corporation, Madison, Wis.) according to manufacturer's protocols using a ViewLux Microplate Imager (PerkinElmer, Waltham, Mass.) and normalized to background (media-only) and vehicle (DMSO)-treated control wells.
Concentration response curves were fit using nonlinear fits to 2- or 3-parameter sigmoid functions through all 16 concentrations with the low-concentration asymptote set to the DMSO-normalized value, and an optimal 8-point dose curve spanning the range of compound-sensitivity was identified. The area under the 8-point dose curve (AUC) was computed by numeric integration as a metric for sensitivity for further analysis. Similar sensitivity measurements have been obtained for a collection of 480 other compounds, enabling analyses that identify cell lines responding uniquely to DNMDP (see Broad Institute Cancer Therapeutics Response Portal, a dataset to identify comprehensively relationships between genetic and lineage features of human cancer cell lines and small-molecule sensitivities for complete list of compounds).

[1] = YD8 (UPPER AERODIGESTIVE TRACT), 72 hours
[2] = YD10B (UPPER AERODIGESTIVE TRACT), 72 hours
[3] = YH13 (CENTRAL NERVOUS SYSTEM), 72 hours
[4] = cell line A3KAW (HAEMATOPOIETIC AND LYMPHOID TISSUE)
[5] = cell line A4FUK (HAEMATOPOIETIC AND LYMPHOID TISSUE)
[6] = cell line A172 (CENTRAL NERVOUS SYSTEM)
[7] = cell line A253 (SALIVARY GLAND)
[8] = cell line AM38 (CENTRAL NERVOUS SYSTEM)
[9] = cell line AML193, HAEMATOPOIETIC AND LYMPHOID TISSUE, 72 hours
[10] = cell line AMO1, HAEMATOPOIETIC AND LYMPHOID TISSUE, 72 hours
[11] = cell line BFTC905, URINARY TRACT, 72 hours
[12] = cell line BFTC909, KIDNEY, 72 hours
[13] = cell line BHY (UPPER AERODIGESTIVE TRACT)
[14] = cell line BICR16 (UPPER AERODIGESTIVE TRACT)
[15] = cell line BICR56, UPPER AERODIGESTIVE TRACT, 72 hours
[16] = cell line BL70 (HAEMATOPOIETIC AND LYMPHOID TISSUE)
[17] = cell line BT474, BREAST, 72 hours
[18] = cell line C2BBE1 (LARGE INTESTINE)
[19] = cell line CAL29 (URINARY TRACT)
[20] = cell line CAL33, UPPER AERODIGESTIVE TRACT, 72 hours
[21] = cell line CAL120, BREAST, 72 hours
[22] = cell line CAL148, BREAST, 72 hours

Q: Which results are given for `CCN(CC)c1ccc(C2=NNC(=O)CC2C)cc1[N+](=O)[O-]` (centres unmarked) [DNMDP, 6-(4-(diethylamino)-3-nitrophenyl)-5-methyl-4,5-dihydropyridazin-3(2H)-one]?
A: DNMDP AUC (X8305C (THYROID), 72 hours): 5.0004; Robust Z-score (X8305C (THYROID), 72 hours): −1.715; DNMDP AUC (X8505C (THYROID), 72 hours): 4.3418; Robust Z-score (X8505C (THYROID), 72 hours): −2.407; DNMDP AUC [1]: 6.4856; Robust Z-score [1]: −0.1565; DNMDP AUC [2]: 6.4579; Robust Z-score [2]: −0.1855; DNMDP AUC [3]: 4.7007; Robust Z-score [3]: −2.03; DNMDP AUC (ZR7530 (BREAST), 72 hours): 6.4339; Robust Z-score (ZR7530 (BREAST), 72 hours): −0.2107; DNMDP AUC [4]: 6.6031; Robust Z-score [4]: −0.03312; DNMDP AUC [5]: 6.7317; Robust Z-score [5]: 0.1019; DNMDP AUC (cell line A101D (SKIN)): 6.8089; Robust Z-score (cell line A101D (SKIN)): 0.1829; DNMDP AUC [6]: 6.6858; Robust Z-score [6]: 0.05369; DNMDP AUC (cell line A204 (SOFT TISSUE)): 6.7338; Robust Z-score (cell line A204 (SOFT TISSUE)): 0.1041; DNMDP AUC [7]: 6.6238; Robust Z-score [7]: −0.01139; DNMDP AUC (cell line A375 (SKIN)): 6.9117; Robust Z-score (cell line A375 (SKIN)): 0.2908; DNMDP AUC (cell line A2780 (OVARY)): 6.5613; Robust Z-score (cell line A2780 (OVARY)): −0.07699; DNMDP AUC (cell line ACCMESO1 (PLEURA)): 7.0033; Robust Z-score (cell line ACCMESO1 (PLEURA)): 0.387; DNMDP AUC (cell line ACHN (KIDNEY)): 6.5518; Robust Z-score (cell line ACHN (KIDNEY)): −0.08696; DNMDP AUC (cell line AGS (STOMACH)): 6.9378; Robust Z-score (cell line AGS (STOMACH)): 0.3182; DNMDP AUC [8]: 6.9715; Robust Z-score [8]: 0.3536; DNMDP AUC [9]: 7.3753; Robust Z-score [9]: 0.7774; DNMDP AUC [10]: 7.2764; Robust Z-score [10]: 0.6736; DNMDP AUC (cell line AN3CA (ENDOMETRIUM)): 6.9081; Robust Z-score (cell line AN3CA (ENDOMETRIUM)): 0.287; DNMDP AUC (cell line BEN (LUNG)): 7.0341; Robust Z-score (cell line BEN (LUNG)): 0.4193; DNMDP AUC [11]: 7.3514; Robust Z-score [11]: 0.7523; DNMDP AUC [12]: 7.9189; Robust Z-score [12]: 1.348; DNMDP AUC (cell line BHT101 (THYROID)): 6.6351; Robust Z-score (cell line BHT101 (THYROID)): 0.0004723; DNMDP AUC [13]: 6.8627; Robust Z-score [13]: 0.2394; DNMDP AUC [14]: 7.0071; Robust Z-score [14]: 0.3909; DNMDP AUC [15]: 7.2108; Robust Z-score [15]: 0.6048; DNMDP AUC [16]: 6.8619; Robust Z-score [16]: 0.2385; DNMDP AUC (cell line BT20 (BREAST)): 6.8931; Robust Z-score (cell line BT20 (BREAST)): 0.2713; DNMDP AUC [17]: 7.2422; Robust Z-score [17]: 0.6377; DNMDP AUC [18]: 6.9144; Robust Z-score [18]: 0.2936; DNMDP AUC (cell line CAKI1 (KIDNEY)): 6.7755; Robust Z-score (cell line CAKI1 (KIDNEY)): 0.1478; DNMDP AUC (cell line CAKI2 (KIDNEY)): 6.614; Robust Z-score (cell line CAKI2 (KIDNEY)): −0.02168; DNMDP AUC (cell line CAL12T (LUNG)): 6.5741; Robust Z-score (cell line CAL12T (LUNG)): −0.06356; DNMDP AUC [19]: 7.0497; Robust Z-score [19]: 0.4357; DNMDP AUC [20]: 7.2038; Robust Z-score [20]: 0.5974; DNMDP AUC (cell line CAL62 (THYROID)): 6.721; Robust Z-score (cell line CAL62 (THYROID)): 0.09064; DNMDP AUC [21]: 7.32; Robust Z-score [21]: 0.7194; DNMDP AUC [22]: 7.1477; Robust Z-score [22]: 0.5385; DNMDP AUC (cell line CAL851 (BREAST)): 6.6074; Robust Z-score (cell line CAL851 (BREAST)): −0.0286; DNMDP AUC (cell line CALU1, LUNG, 72 hours): 7.8185
